Laboratory results reported in PMC10726135.
The list shows a part of the results. At the low end of the ranking the order means little. Measured with an extract: partners may take part in the binding.

What follows are sequences tested against T1, HNF4alpha8 (COS-7 nuclear extract) (UniProt P41235-5) (assay: protein-binding microarray). Conditions: COS-7 nuclear extract on double-stranded Agilent 4x180k PBM; binding buffer, salt, pH and temperature not given; high values mean tight binding; double strand, one strand shown; sequences stand for … in …GCCTAGGGAGATTAGAGTATCGGTCGA.
T1 sequence: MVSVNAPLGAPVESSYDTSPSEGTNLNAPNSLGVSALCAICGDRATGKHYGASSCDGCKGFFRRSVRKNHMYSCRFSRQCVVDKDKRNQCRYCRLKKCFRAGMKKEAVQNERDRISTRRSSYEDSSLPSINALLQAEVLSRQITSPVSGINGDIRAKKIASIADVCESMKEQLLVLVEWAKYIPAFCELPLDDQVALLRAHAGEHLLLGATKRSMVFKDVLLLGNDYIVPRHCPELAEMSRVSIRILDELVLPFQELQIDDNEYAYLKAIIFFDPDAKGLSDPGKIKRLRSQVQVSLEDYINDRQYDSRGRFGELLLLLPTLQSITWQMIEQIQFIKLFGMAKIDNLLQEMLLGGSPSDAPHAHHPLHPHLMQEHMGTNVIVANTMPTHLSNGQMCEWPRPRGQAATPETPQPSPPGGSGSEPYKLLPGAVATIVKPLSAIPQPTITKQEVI

Row | Sequence | binding signal (log2 normalized intensity)
1 | CTCATAACTAGGGTTCCAAGACCAAGCAAG | -1.29
2 | GCCTTGCCGTGCTGCGGTGGGCTCCACCCA | -1.42
3 | TGCACAAATTTCAGATATCTGAATGTACCT | 1.93
4 | TGTTCATTATGTCTTATCTACCTGGCTTGT | 1.66
5 | CGGGAAAGGCCGGAGGGCGGGGCGGGGCAG | -1.34
6 | GGCCCAGGGACTCAGGCACACAAAAAAAAC | -1.32
7 | TCTGTGGTCAGGGCCTTTCCAGCAAATCCC | -1.27
8 | GTACAGCCTGTGCTAAGTTTCAAAGAGGAG | -1.19
9 | ACACTGGGAGGCAAATCTCTTGGTCATGGA | 0.515
10 | CCCTCAGCAACTGCAAGGCTGACCCGTGAA | 2.14
11 | TTGCTAGATTCTTTCTTCCTTTTGAAAAAG | -0.907
12 | AAGGCAAGATCATTCCAGGAATGTTCAAGA | -0.959
13 | TGGGCCCAGATATACAAGAAAGAAAGAATG | -0.471
14 | GACTCCAAAGGGCTGGAGACTGAGTAACTA | -1.45
15 | GGGGCATCGGTCTTTACACATCTGTTAGGA | 0.636
16 | TGGGCCACCTGAGACAGTTTATGCCAGCAA | -1.17
17 | GTGTACTGGGCAGATAACAGCGAACATGAG | -1.14
18 | TCCTATCACCATATCCCTGAGAGGCCAGTT | 0.554
19 | AGCAACAGCTGCAGTGAAATTCTGGCCAAC | -1.27
20 | AGTTCAGAGAGGAATCGGCAGTTTGGGCCT | -0.873
21 | TGGGCAGGGGCATCCTCATTGCCTCTGGGC | -1.05
22 | CCCAGCCAGGAGCAGAAAGGAGGCAGAGAC | -1.23
23 | ATAGGCTGGGATGATTTCAGCTTATAAATC | -1.39
24 | TATCAGTGTAACTATTACTGGACAGCCAGC | -0.863
25 | TTGCAAGTCTGAGGCTGCTCTCTGTCCCTG | 0.546

Row | Sequence | binding signal (log2 normalized intensity)
26 | GTCTGCAGCTGAACCATATTCTTTACATTT | -0.0571
27 | TGAGAGAGCCCCTGTGATACAACGGTTCAA | 0.435
28 | GGTCATCAGGACTCTAACTGGCTTTAAGAG | -1.2
29 | TGTGGCTGCCAAGACACAGAGAAAAAGAAG | -1.28
30 | ACAACCCCTACTGTACCCTATGCACCCCAC | 4.43
31 | AGCCCCACAGAGCAAAGGTCATGCATAGAA | 5.42
32 | GGCTCAGCATTCTGAGGGCCTCCAATAGGG | -1.42
33 | TAAGGAGGTAGAGTCTAAGGCTAAAACATC | -1.39
34 | GCCCAACTCGGAGGACTGAGCCCGCTCCAC | -1.3
35 | GGGCATTACTTGCTGGAGAAAGAGGGGAAG | -1.15
36 | ATGAAAGCGCCTTGCTTTCTGCCCAGGGAG | -1.33
37 | GAGATAAGATCAGTATAGTTAGGGCCTTGC | -0.807
38 | GAGTTTAAATGACCTCTGCCCTTCCACCCA | 5.16
39 | GAGGGAGACAACCTTTGGTCACTTGTAAGA | 3.76
40 | TCTCGCTGCTTCGGCCTTTGACCTCGTGAT | 7.09
41 | CTTTGTTCCCTGGCTCACTGACTCAGTCTT | 0.203
42 | TAAAGCCCTGGGGTAATAAAAGTGTACAAA | 0.639
43 | CAGAATTGCTGCTCCCCCTCCCAAATCGGT | 4.07
44 | CTGGAGGGACTGTGATGAAGGCAGAAAGAA | -1.32
45 | ACAGCACCTCTCTGATGCCATGATAAGCAG | -1.33
46 | GGCCTCAGGTTCAAAGGGCTTAATCTTTCC | 2.3
47 | CCTTTGGTGCCTCTTTTTTCTTGTTGACTT | 1.91
48 | CATAAACACAGACACACATGAGCTAGTGCT | -1.43
49 | GGGTTCACATTCCAGCTCTGTGACTTTACC | 1.09
50 | ATTCCCTTCCCCTCCTTAGGAAAGAGACAT | 2.47

Row | Sequence | binding signal (log2 normalized intensity)
51 | TCCTTCTTGCTTAGGATAGGGTCAGTCTTT | 2.48
52 | CCCTAGACACCGGGTGAAGGTTAAATAGCT | -1.26
53 | ATACTGGATAACCTTCCAGACAGAGAGGTC | 1.83
54 | AGCATGGTCCACAGCTTTGGGCATACAAAA | -1.32
55 | AAATCTGCCCAACCTTTGCCCCTGGAGGGA | 4.18
56 | AGCAGTGACTTGAGAGGCCAGTTTCTCCAC | -1.36
57 | AGCAAGAGCACAAGAACAAAAACTGTTTCT | -1.44
58 | AGGGGGCAGGAGCCCAAGAAGCGTCAGTTG | -1.24
59 | AATCGAATTGTGAAACTCAGAATCAGGGGA | -1.29
60 | CCCTCCTCCTTTTTTTCCCCTCCCTCAGCT | 3.51
61 | AGAAGTAAGAAATCAGGAGCAAAGGTTGGG | 1.89
62 | AGCAGGTGTTCACCTTCAGTCACACTGTTT | 0.347
63 | GGGCCATGACCTTTACCCCCATTTGGTAAT | 7.13
64 | AAGGTCAAACAGTGCACTGAAATCTCTCAA | -0.954
65 | CAGTGATATTCTCTCGTCACCTCCACCCAC | 2.77
66 | GCTCTGGCCACTCCCTGGGCAGTGCAGTAT | -1.22
67 | TCCCCACCCCCAACTTCCCCAACCCTTGCA | 6.31
68 | TCCCAGCATTCCAAGTGAGTAAGGAAAGCC | -1.28
69 | GTCAGAGTGCTGCATGCAAAAAGGCTGACC | 1.75
70 | TTGCCCAGAGGGGTTCCTCAGTAAATGCTG | -1.04
71 | GTGGACTTTCACCTCCACCAGATAGCAAGG | 4.15
72 | GGACCGCAGAGGCTGGAGCAGGCCATGTGC | -1.39
73 | GAAAAGTGTTTGCCAAAGGATATCTTTAAT | 0.613
74 | GCGGAGAGGGTTCTCACTCCTCTATCAGTA | -1.37
75 | TGCTGGAAACCTAGGAGTTATCTAAGACCC | -1.2

Row | Sequence | binding signal (log2 normalized intensity)
76 | TTCACTTGCCACATTTATTGTGAGATTACG | 0.83
77 | ATGAAGATGCAGAACAAGGTAGCCACAGAA | -1.28
78 | TCTCTGTTGACCACCTGCCCCAGGAATGCC | 2.43
79 | AACCACAGAAATGCCGCTAATGTATTTCGG | -0.807
80 | AAGTCTCTAGATGGGGTTGAGCAGACTAAA | -0.554
81 | CCTCCCCTCCCCCTTGGTGTTTAAACACAT | 4.87
82 | ATGACCAGCAGGGTGACCAGTGGACCATGA | 3.07
83 | GAGGAGCACAGAAGGAGAGAGAGGGAGAGT | -1.31
84 | CAGAGATTGGAATCTCTGCACAGCATAGAA | -1.31
85 | CTGAGAGTCACTGCCTTATCGTATTCTTAT | -0.107
86 | AAAGAATAACGTTACAGTGGAGAAACCTGA | -1.41
87 | GTGATTAGTGCAAGAATCCAAGAATTCGAT | -1.32
88 | GAGGGCGAGGCCGAGCCTCAGCCGGGAGAG | -1.3
89 | CTTATCAGCAGGAGACCTGAAACTAGACCA | -1.4
90 | CACATTTCAGGAATGTTTTATGTGCTCCAT | 1.51
91 | CACTAATCTGTCAGAAAACCCACGCCCACC | 2.63
92 | GGTTGTAAAATGAGGTCAGCATGGTGGGAG | 1.04
93 | AGGGAGGAAGGCAACCACAGCCTCTGCATT | -1.43
94 | ATATCAACTGGACAAATTCCTGGGAACTGC | -1.28
95 | TTCATAGGTCCTCTTGGAAGATGCCTTTTT | 0.936
96 | AATTGAGATAAACATGAAACAGTCACAGTT | -1.28
97 | GCCCCGAGATAACCCCTCTCCAAGCCAGAA | 4.01
98 | CGAGAGAGCCTGGACACACGAATAATGGAG | -1.37
99 | AGGGTTGGAATGTCTTTGGGTGGAGGGGAG | -0.87
100 | TAAACAGTGACTCATGCAAGCCTGAGGGAG | -1.28

Row | Sequence | binding signal (log2 normalized intensity)
101 | AAACCTGGTAGCGTGTAGTAAAGCTCATGA | -0.83
102 | AAGCAAACATACTGCTTATTTAAATTTCTT | -1.34
103 | GCTCTCCGTGGACTTTGCCCCCTACAGTTT | 10.5
104 | GACATTCAATTGCAAGCTTATCTTCCCAGG | -1.14
105 | TAATTCTTCAAAGGAGTGGAGGAAGGAAGA | -1.35
106 | GGAATGAAAGGAGGTCATGTACATGAAAGC | 1.28
107 | TGAATGTCCAACTTGCCCTGGTCTCACATC | 1.37
108 | CACGTGGCTAGATTGCAACCAAGTCCATCT | 0.894
109 | AGCACCTGAAGAATTTGGACTTTGCACTAA | 9.19
110 | CGGCTGGTATCCACAGGAGGCCCCATCGCA | -1.25
111 | AATGGCAGACTAAACTCACAATGGGGCATG | -1.33
112 | TTGGACAGAGTTTGTGGTGTTTGTGGCATT | 2.05
113 | AAGGTCAATCTGGATTGTACTGTGTCTTGA | 2.68
114 | GCTACACAGATAAGCCATTCGTAACCTTCA | -1.34
115 | CTTCGGCCAGCACAGGAGGCCTCTCAAAGC | -1.31
116 | TGTTATCTCAGTAGACTAACGTATGGACTT | 3.41
117 | GCAACTACTCTCTCTTCTGGAGGAGGATCA | -1.28
118 | TAGGTATGCCCCATGGTAAGAACTACAGTT | 1.21
119 | AGACCCTCTTTTCTTTGTACCGTATTTCAG | 1.49
120 | CATCCTGAACAAATGTACTGGATATAGCCA | -1.19
121 | TTCTGGAGGATTAGTGGGAGATAAGGTGGA | -0.593
122 | TCTTAGGAAAGCACAGCTGATTGCTCAACC | -1.3
123 | TTGCCATGACCTTTGAAGCCCAGAACACTC | 4.51
124 | CCCAGCGGAAGTCCAGTGGTGTCTTACCGG | 0.509
125 | TGGTTCCTGGAAAAGTCTCAGGGGCCTTGC | -1.08

Row | Sequence | binding signal (log2 normalized intensity)
126 | TCTCGGCCTTAAGAGTCAAAGGGCAAAGGA | 3.71
127 | TGGGATGGAACAAGGTCCCATGCACTGGCC | -1.2
128 | GGAACTATTGGATTCCCCAATGCAGTACTA | -0.208
129 | TGCATTCCTGTCCACCCTGAAAGAGAGGAG | -1.35
130 | GCAGCTTGGGAGCAATTTAGCAGCACCATC | -1.48
131 | ACTGAACATACAGGGTCTAGCAGTGCAGCG | -1.31
132 | GGTCAAAGTACATCCCCTAAAACATCAAAT | 3.45
133 | GATTGCAACCAAGTCCATCTGTATTGCCTC | 0.673
134 | CTGTGAAGCACATCCTGTTCTAGCTCGGGG | -0.931
135 | CCAGGCTGAAGTGGCCCAAGATGGAGATGA | -1.32
136 | ATTGTGATGTGTGCGTTCATCTCACAGAGT | 0.112
137 | TCAAAGGGCTTAATCTTTCCTGCCTGCCGG | -1.32
138 | TTTCTATGTGACCTTCACCCTGCTGTAAAT | 4.48
139 | GTCCTTAAGATCCAAAGGAGTGGTCCTGCT | -1.34
140 | GATCTAATGCACCCAGAACCCCCAGGTCAC | 4.89
141 | ACCTGTTCAGCCAGATTCTCTCACTGCTCT | -1.27
142 | TGGACCACGTGGCTAGATTGCAACCAAGTC | -1.36
143 | TTCCATTGAAGCAGAGTGTCCCATATCACA | 0.828
144 | CCCACAAAGCCTAAAATATTCACTATCTGA | -1.26
145 | AAGATTCCTGCTCTAATGTTCCTTATCAGA | -1.4
